Data: PubChem BioAssay AID686979 (National Center for Advancing Translational Sciences (NCATS), 2013)
Among all 420,000 compounds or so, about 50,000 (12%) were called active. Inconclusive means that the source gave no clear call. Such entries were picked first, then a sample of the others. The call rests on the fitted dose curve; in most records, active means well fitted inhibition curve with a large enough effect; inconclusive means small, poorly fitted or top-dose-only effect; inactive means flat fitted curve, though single readings scatter. Potencies of inconclusive entries are left out as doubtful fits.

Assay: qHTS for Inhibitors of human tyrosyl-DNA phosphodiesterase 1 (TDP1): qHTS in cells in presence of CPT; further: nearly all actives have a fitted effect of over 55% in size
Conditions: chicken DT40 Tdp1-/-;hTDP1 cells + 20 nM CPT, ATP luminescence, 48 h; activity change, negative = growth inhibition: at 46.2 µM (top of the series) unless noted
Summary of the method: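 Chicken DT40 Tdp1-/- cells complemented with human TDP1, 400 cells/well, exposed to compounds plus 20 nM camptothecin for at least 48 h at 37 C; viability read as ATP content by CellTiter-Glo luminescence.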
On the % scale 0 is the no-effect control and ±100 the full control effect; potency means the concentration at half of the fitted maximal effect; tags describe the fitted curve by direction and shape.

Structure (SMILES)	Potency	activity change, negative = growth inhibition
COC(=O)C1=C(C(=O)OC)[C@@H]2N(Cc3ccccc3)c3ccccc3[C@@]23C[C@@H](C(=O)OC)N(C(=O)COCc2ccccc2)C3=N1	inconclusive [inhibitor, single point]	
O=C(/C=C/c1cc(Br)ccc1F)Nc1cccnc1	inconclusive [inhibitor, single point]	
Cc1ccc(N=CC=C2OC(C)(C)C(C)(C)O2)c(C)c1		inactive: 1.22%
COc1cc2c(cc1OC)C(c1ccc(-c3ccccc3Cl)o1)=NCC2	active: 6.51 µM	
Cc1ccccc1-c1cc(C(=O)n2cccn2)c2cc(Cl)ccc2n1		inconclusive: -27.7% [inhibitor]
OCC1(Cc2ccccc2)CCN(Cc2cnc(-c3cccc4ccccc34)nc2)CC1		inconclusive: -30.6% [inhibitor]
CN(C)S(=O)(=O)c1ccc(NC(=O)/C=C/c2ccccc2Cl)cc1	inconclusive [inhibitor, single point]	
Cc1ccc(/C=C2\SC(=S)N(CCC(=O)NNC(=O)c3cccc(O)c3)C2=O)cc1	inconclusive [inhibitor, single point]	
CCOC(=O)C1=C(C)NC(C)=C(C(=O)OCC)C1c1sccc1C	inconclusive [inhibitor, partial curve]	
CC1=C(C(=O)OCC(C)C)C(c2ccccc2Cl)NC(=O)N1C (stereo unspecified)	active: 8.2 µM	
C/C(CCc1ccc2c(c1)OCO2)=N\N=C(/N)SC1CC(=O)N(c2ccccc2F)C1=O (stereo unspecified)	inconclusive [inhibitor, single point]	
CCc1nc(SCC(=O)N2CCCCC2)c2c(=O)n(C)c(=O)n(C)c2n1		inactive: -10.6%
CC(=O)Nc1ccc(S(=O)(=O)N2CCC(c3nc4ccc(C)cc4[nH]3)CC2)cc1	inconclusive [inhibitor, single point]	
O=C(Nc1ccccc1N1CCCCC1)c1ccc([N+](=O)[O-])o1	active: 20.6 µM	
CC(OC(=O)c1ccc(Br)c(S(=O)(=O)N2CCOCC2)c1)C(=O)NC1CCCCC1C (stereo unspecified)	inconclusive [inhibitor, partial curve, poor fit]	
Cc1ccc(NC(=O)C/C(N)=N/OC(=O)c2ccccc2)cc1	inconclusive [inhibitor, single point]	
Cc1cccc2c(CCNC(=O)c3ccc([N+](=O)[O-])cc3)c[nH]c12	inconclusive [inhibitor, partial curve]	
COc1ccc(CC(=O)OCC(=O)N2c3ccccc3CC2C)cc1OC (stereo unspecified)	inconclusive [inhibitor, single point]	
O=C1c2ccccc2NC(c2cccc(F)c2)N1Cc1ccccc1 (stereo unspecified)		inactive: -21.9%
CN(C)c1ccc(NC(=O)C2(c3cccs3)CCOCC2)cc1		inactive: -4.12%
COc1ccc(-c2ccc(/C=C3/C(=N)N4C=CSC4=NC3=O)o2)c([N+](=O)[O-])c1		inactive: -29.5%
COc1ccccc1CC(=O)NCc1nn(-c2ccccc2)nc1C	inconclusive [inhibitor, single point]	
CCOC(=O)c1ccc2[nH]c3ccccc3c2c1	inconclusive [inhibitor, single point]	
COC(=O)C1C2C=CC3(CN(C4CCCC4)C(=O)C13)O2 (stereo unspecified)		inactive: -4.06%

Structure (SMILES)	Potency	activity change, negative = growth inhibition
Cn1cc(Cl)c(C(=O)N(Cc2ccccc2)c2ccccn2)n1	inconclusive [inhibitor, partial curve]	
O=C1c2ccccc2NC(c2ccccc2Cl)N1N=C1CCCCCC1 (stereo unspecified)		inconclusive: -31% [inhibitor]
O=C(CSCc1ccc(F)cc1)N1CCc2c([nH]c3ccccc23)C1c1ccccc1 (stereo unspecified)	active: 20.6 µM	
CC1CCC(C(C)C)C(OC(=O)COC(=O)c2cc(O)ccc2N)C1 (stereo unspecified)	inconclusive [inhibitor, partial curve]	
CCOC(=O)NC(Nc1ccc(S(N)(=O)=O)cc1)(C(=O)OCC)C(F)(F)F (stereo unspecified)		inactive: -1.98%
CCOC(=O)C1=CN(Cc2ccco2)S(=O)(=O)N(C)C1c1ccc(C(F)(F)F)cc1 (stereo unspecified)	inconclusive [inhibitor, single point]	
C=CC[C@@H](CC(=O)OC(C)(C)C)C(=O)OC[C@@H]1CCCN1C(=O)[C@@H](CC=C)CC(=O)N[C@H](CO)Cc1ccccc1	active: 23.1 µM	
COc1ccc(CC(=O)Nc2ccc3nc(C)sc3c2)cc1OC		inactive: -5.66%
O=C(Nc1cccc(F)c1)c1ccc(-c2ccccc2Cl)o1	inconclusive [inhibitor, single point]	
Cc1cc(C)cc(NC(=O)CN2CCN(C(=O)C3CCCO3)CC2)c1 (stereo unspecified)		inactive: 40.2%
CC(O)CNC1c2ccccc2CC1O (stereo unspecified)		inactive: -1.88%
CN(C)/C=C/C(=O)c1ccn(S(=O)(=O)c2ccccc2)c1		inactive: -26.7%
O=C(CCc1nc2cccnc2n1Cc1ccccc1)NCCc1ccc(Cl)cc1	inconclusive [inhibitor, single point]	
CCc1cccc2c(C(=O)CN3C(=O)C(=O)N(C4CCCC4)C3=O)c[nH]c12	inconclusive [inhibitor, partial curve, poor fit]	
COc1ccc(CNC(=O)COC(=O)c2ccc(C(=O)c3ccccc3)cc2)cc1		inactive: -18.2%
COc1ccc(NC(=O)Nc2ccc(N(C)C)cc2)cc1		inactive: -9.8%
COc1ccccc1OCCOc1ccc(C(=O)c2ccccc2)cc1	active: 18.4 µM	
COc1ccc(-c2nnc(OCc3nc4ccccc4n3C)c3ccccc23)cc1	inconclusive [inhibitor, single point]	
COc1ccccc1NC(=O)c1c(NC(=O)c2cccs2)sc2c1CCC(C(C)(C)C)C2 (stereo unspecified)		inactive: -6.05%
COC(=O)c1sccc1NC(=O)CN(C)NS(=O)(=O)c1ccc(Cl)cc1	inconclusive [inhibitor, partial curve]	
O=C(CC(=O)Nc1ccccc1F)Nc1ccc2nc3n(c(=O)c2c1)CCCCC3		inactive: -10.6%
CC1CCN(C(=O)c2[nH]cnc2C(=O)N[C@@H](CCCCNC(=O)OC(C)(C)C)C(=O)OC(C)(C)C)CC1	inconclusive [inhibitor, single point]	
COc1ccc(N2CCN(Cc3cc(=O)oc4cc(C)c(Cl)c(C)c34)CC2)cc1	active: 14.6 µM	
Cc1cccc(N2CCN(C(=O)c3ccc4c(c3)N(Cc3cccc(Cl)c3)C(=O)c3ccccc3S4=O)CC2)c1C (stereo unspecified)	active: 3.66 µM	

Structure (SMILES)	Potency	activity change, negative = growth inhibition
Cc1ccc(C)c2[nH]c(=O)c(CN(CC3CCCO3)C(=O)NC3CCCCC3)cc12 (stereo unspecified)	active: 23.1 µM	
O=C(/C=C/Nc1ccccc1F)c1cccs1	inconclusive [inhibitor, single point]	
CCc1ccc(OC(=O)c2sc3ncn(Cc4cccc(F)c4)c(=O)c3c2C)cc1		inactive: -10%
CC1CCCN(CCCNC(=O)c2nn(C)c3c2CSc2ccccc2-3)C1 (stereo unspecified)	inconclusive [inhibitor, single point]	
CCn1ncc(CNC(=O)CCCSc2nc(-c3ccco3)cc(C(F)(F)F)n2)c1C	inconclusive [inhibitor, single point]	
c1ccc(CNc2ncnc3sc4c(c23)CCC4)nc1	inconclusive [inhibitor, single point]	
COc1cc(/C=C2/C(=N)N3C=CSC3=NC2=O)ccc1OCCCOc1ccccc1C	inconclusive [inhibitor, single point]	
COc1cc(/C=C2/C(=N)N3OC(C)=CC3=NC2=O)ccc1OC(=O)c1ccco1		inactive: -0.341%
CN(Cc1cn(Cc2cccc(Cl)c2)nn1)C1CN(Cc2cn(Cc3cccc(Cl)c3)nn2)S(=O)(=O)C1 (stereo unspecified)	inconclusive [inhibitor, single point]	
O=C(OCc1ccc([N+](=O)[O-])cc1)c1cc([N+](=O)[O-])ccc1N1CCOCC1	active: 16.4 µM	
CS(=O)(=O)Nc1cccc(-c2cc(NCc3ccccc3)ncn2)c1		inactive: 6.9%
CC(NC(=O)COC(=O)[C@@H]1CCCN1S(=O)(=O)c1ccccc1F)C12CC3CC(CC(C3)C1)C2 (stereo partly specified)	inconclusive [inhibitor, partial curve, poor fit]	
Cc1ccc(-n2ncc3c(SCC(N)=O)ncnc32)cc1C	inconclusive [inhibitor, single point]	
C/C(=N\NC(=O)CC(C)C)c1ccc(N2CCCCC2)cc1		inactive: -17.2%
O=C(NN=Cc1ccccc1C(=O)O)c1ccc(NS(=O)(=O)c2cccs2)cc1		inactive: 6.34%
CCOC(=O)c1sc(NC(=O)C2CC2)cc1C	inconclusive [inhibitor, single point]	
O=C(Nc1ccccc1-c1nc2ccccc2s1)c1ccco1	inconclusive [inhibitor, partial curve]	
Nc1ccccc1Sc1cc(Cl)nnc1Cl		inactive: 0.995%
O=C(NCc1ccc(F)cc1Cl)c1ccc(CSCc2ccccc2Cl)o1	inconclusive [inhibitor, single point]	
CCSc1nnc(CNC(=O)C23CC4CC(CC(C4)C2)C3)n1Cc1ccccc1	inconclusive [inhibitor, single point]	
O=[N+]([O-])c1cc(S(=O)(=O)Oc2ccccc2)ccc1Cl	active: 0.58 µM	
Cc1cccc(C2c3[nH]c4ccccc4c3CCN2C(=O)c2cc(CC(C)C)[nH]c(=O)n2)n1 (stereo unspecified)	inconclusive [inhibitor, single point]	
COc1ccc(C(C)=O)cc1CSc1ccc(S(=O)(=O)N2CCOCC2)cn1	inconclusive [inhibitor, single point]	
